Data: the supplement of paper PMC8285479
Counter-ions that a name gives are not always drawn. ± gives the standard deviation of the averaged measurements. In all, about 1,900 compounds were measured (“normalised cell viability (NPI; 0 = phenylarsine oxide control, 1 = DMSO control)”: median about 1, lowest 2% from about 0.039 on). Some of the results follow.

Test system: NCI-H1944
Assay: normalised cell viability (NPI; 0 = phenylarsine oxide control, 1 = DMSO control) (fraction of DMSO control); NCI-H1944 is a non-small cell lung cancer line; higher = more viable cells (less compound toxicity)
Details: 6 days
[1] = glucocorticoid arm: hydrocortisone 2.75 uM co-treatment, compound 1 µM
[2] = glucocorticoid arm: hydrocortisone 2.75 uM co-treatment, compound 5 µM
[3] = glucocorticoid arm: hydrocortisone 2.75 uM pre-treated 2 days and continued, compound 1 µM
[4] = glucocorticoid arm: hydrocortisone 2.75 uM pre-treated 2 days and continued, compound 5 µM
[5] = glucocorticoid arm: vehicle, compound 1 µM
[6] = glucocorticoid arm: vehicle, compound 5 µM
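Also: CTB read-out in 384-well plates, mean of triplicate wells, normalised per plate against 1 µM phenylarsine oxide and 0.1% DMSO, compounds added 24 h after seeding.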

Compound | normalised cell viability [1] | normalised cell viability [2] | normalised cell viability [3] | normalised cell viability [4] | normalised cell viability [5] | normalised cell viability [6]
CC(C)NCC(O)c1ccc(O)c(O)c1 (racemic) [Isoprenaline HCl] | 1.01 ± 0.01 | 1.01 ± 0.019 | 1.02 ± 0.023 | 1.03 ± 0.023 | 1.003 ± 0.0058 | 0.9973 ± 0.0023
CC(C)NCC(O)c1ccc(O)c(O)c1 (racemic) [R(-)-Isoproterenol (+)-bitartrate] | 1.003 ± 0.0064 | 1.02 ± 0.021 | 1.006 ± 0.0063 | 1.001 ± 0.0085 | 1.007 ± 0.0058 | 1.017 ± 0.0058
CC(C)NCC(O)c1ccc(O)c(O)c1 (racemic) [(±)-Isoproterenol hydrochloride] | 1.01 ± 0.011 | 1.03 ± 0.042 | 1.01 | 1.04 ± 0.064 | 0.99967 ± 0.00058 | 1.02 ± 0.021
CC(C)NCC(O)c1ccc(O)c(O)c1 (racemic) [S(+)-Isoproterenol (+)-bitartrate] | 0.9917 ± 0.0072 | 1.01 ± 0.019 | 0.9907 ± 0.0063 | 1.01 ± 0.079 | 0.9803 ± 0.0011 | 0.984 ± 0.014
CCCCCCCCCCCCCCCC(=O)NCC(COP(=O)([O-])OCC[N+](C)(C)C)OCC (racemic) [rac-2-Ethoxy-3-hexadecanamido-1-propylphosphocholine] | 1.01 ± 0.01 | 1.09 ± 0.023 | 1.007 ± 0.0058 | 1.113 ± 0.0058 | 1.013 ± 0.0058 | 1.02 ± 0.011
CNC(=O)[C@H]1O[C@@H](n2cnc3c(N)ncnc32)[C@H](O)[C@@H]1O [5'-N-Methyl carboxamidoadenosine] | 0.982 ± 0.02 | 0.972 ± 0.015 | 0.988 ± 0.013 | 0.961 ± 0.0028 | 0.9893 ± 0.0078 | 0.976 ± 0.0053
CC[n+]1c(/C=C/C=C2/N(C)c3ccccc3C2(C)C)sc2ccccc21 | 0.467 ± 0.026 | 0.434 ± 0.017 | 0.901 ± 0.032 | 0.798 ± 0.02 | 0.237 ± 0.0069 | 0.112 ± 0.0067
CNC[C@@H](O)c1ccc(O)c(O)c1 [L-Adrenaline] | 1.02 ± 0.017 | 1.01 ± 0.024 | 1.01 | 0.992 ± 0.036 | 1.003 ± 0.0061 | 1.002 ± 0.0076
Cc1ccc(S(=O)(=O)C=CC#N)cc1 | 0.979 ± 0.013 | 0.976 ± 0.0056 | 0.9813 ± 0.0023 | 0.997 ± 0.023 | 0.988 ± 0.011 | 0.688 ± 0.081
Cc1ccc(N(CC2=NCCN2)c2cccc(O)c2)cc1 [Phentolamine mesylate] | 0.9687 ± 0.0031 | 0.98 ± 0.003 | 0.997 ± 0.014 | 0.987 ± 0.01 | 0.97 ± 0.0044 | 0.963 ± 0.012
Cc1ccc(N(CC2=NCCN2)c2cccc(O)c2)cc1 [Phentolamine Mesylate] | 0.983 ± 0.016 | 0.9297 ± 0.0083 | 0.986 ± 0.022 | 0.9663 ± 0.0038 | 0.9897 ± 0.0068 | 1.003 ± 0.0061
Clc1ccc2c(c1)C(N1CCNCC1)=Nc1ccccc1O2 [Amoxapine] | 1.01 ± 0.026 | 0.994 ± 0.014 | 0.803 ± 0.32 | 0.9995 ± 0.00071 | 0.9907 ± 0.0057 | 0.985 ± 0.0062
O=C(c1cc(Cc2n[nH]c(=O)c3ccccc23)ccc1F)N1CCN(C(=O)C2CC2)CC1 | 0.997 ± 0.015 | 1.02 ± 0.029 | 1.001 ± 0.0082 | 1.03 ± 0.011 | 0.985 ± 0.003 | 0.89 ± 0.02
O=C(O)CCc1nc(-c2ccccc2)c(-c2ccccc2)o1 [Oxaprozin] | 1.02 | 1.03 ± 0.04 | 1.02 ± 0.011 | 1.05 ± 0.049 | 1 | 1.01 ± 0.015
c1ccc(CC2=NCCN2)cc1 [Tolazoline HCl] | 1.013 ± 0.0058 | 1.01 ± 0.012 | 1.03 ± 0.011 | 1.01 ± 0.02 | 0.9887 ± 0.0035 | 0.98 ± 0.012
NCCCCC(=O)O [5-Aminovaleric acid hydrochloride] | 0.9807 ± 0.0096 | 0.99533 ± 0.00058 | 0.9797 ± 0.0035 | 0.9945 ± 0.00071 | 0.992 ± 0.0066 | 0.9927 ± 0.0032
OCCN1CCN(CCCN2c3ccccc3Sc3ccc(C(F)(F)F)cc32)CC1 [Fluphenazine dihydrochloride] | 0.969 ± 0.013 | 0.882 ± 0.022 | 0.993 ± 0.021 | 1.007 ± 0.0058 | 1.013 ± 0.0058 | 0.988 ± 0.021
CC(C(=O)O)c1ccc(CC2CCCC2=O)cc1 (stereo not given) [loxoprofen] | 0.992 ± 0.0062 | 0.977 ± 0.016 | 0.994 ± 0.017 | 0.996 ± 0.038 | 0.9943 ± 0.0049 | 0.9997 ± 0.0093
O=C1NC(=O)/C(=C\c2ccc3nccnc3c2)S1 | 0.99 ± 0.011 | 0.868 ± 0.034 | 1.01 ± 0.011 | 0.902 ± 0.025 | 1 ± 0.015 | 0.983 ± 0.015
CN(C)CCCN1c2ccccc2CCc2ccc(Cl)cc21 [Clomipramine hydrochloride] | 1.01 ± 0.01 | 0.936 ± 0.023 | 1.01 ± 0.015 | 1.01 ± 0.022 | 1.002 ± 0.0072 | 1.003 ± 0.0061
CNC(=O)[C@H]1O[C@@H](n2cnc3c(NCc4ccc(N)cc4)ncnc32)[C@H](O)[C@@H]1O | 1.01 ± 0.012 | 0.9953 ± 0.0081 | 0.997 ± 0.003 | 1 | 0.9873 ± 0.0091 | 1.001 ± 0.0085
COc1cc2c(cc1O)CC[C@@H]1[C@@H]2CC[C@]2(C)[C@@H](O)CC[C@@H]12 [2-Methoxyestradiol (2-MeOE2)] | 0.9837 ± 0.0055 | 1.05 ± 0.011 | 0.969 ± 0.015 | 1 | 0.9883 ± 0.0046 | 0.476 ± 0.081
COc1cc2c(cc1O)CC[C@@H]1[C@@H]2CC[C@]2(C)[C@@H](O)CC[C@@H]12 [2-methoxyestradiol] | 1.003 ± 0.0058 | 0.419 ± 0.045 | 1 ± 0.015 | 1.12 ± 0.076 | 0.9977 ± 0.0025 | 0.131 ± 0.009
COC(=O)C1=C(C)NC(C)=C(C(=O)OC)C1c1ccccc1[N+](=O)[O-] [Nifedipine] | 1.01 ± 0.01 | 0.993 ± 0.018 | 1.013 ± 0.0058 | 0.884 ± 0.26 | 0.9983 ± 0.0029 | 1.01 ± 0.018
COc1cc2c(CCNC(C)=O)c[nH]c2cc1O [6-Hydroxymelatonin] | 1.002 ± 0.0074 | 0.988 ± 0.01 | 1 ± 0.013 | 1 ± 0.013 | 1 ± 0.01 | 0.992 ± 0.0053
